In PubChem BioAssay AID757 (NMMLSC, 2007):
The whole screen tested about 190,000 compounds, of which about 520 (0.27%) were called active. Inconclusive results, whose numbers are uncertain, are shown with a selection of clear calls.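 The calls were made as follows: active = GTP binding activity at least 20 points away from the 100% control level, either lower or higher; inconclusive = compound flagged as likely green fluorescent, judged across all proteins; inactive = the rest.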

Molecular target: Ras-related C3 botulinum toxin substrate 1 (Homo sapiens) (UniProt P63000)
Assay: wildtype Rac1 GTP binding modulators, primary screen, biochemical, GST-Rac1 beads, flow cytometry, multiplex (AID 757)
Settings: fluorescent GTP binding, at 10 µM, actives lie on both sides, 0 = cold GTP competed, 100 = untreated

| Structure (SMILES) | GTP binding activity (% of control) |
| --- | --- |
| CCOc1ccc2ccccc2c1/C=N/n1cncn1 | active: 130% [activator] |
| CCN(CC)S(=O)(=O)c1ccc2nc(NC(=O)c3cccs3)sc2c1 | inconclusive: 89% |
| Cc1sc(-c2ccncc2)nc1OC(=O)c1ccc(F)cc1F | inactive: 96% |
| COC(=O)[C@H](C)[C@H]1C[C@]1(C)[C@H](NC(=O)OCc1ccccc1)c1ccccc1 | inconclusive: 106% |
| O=C(NCc1ccccn1)C(=O)N/N=C/c1ccc2c(c1)OCO2 | inconclusive: 99% |
| O=C(N/C(=C\c1ccccc1)C(=O)N1CCCCCC1)c1ccccc1 | inconclusive: 101% |
| CCS(=O)(=O)N1CCC(C(=O)NCCCOC)CC1 | inconclusive: 104% |
| Cc1c([N+](=O)[O-])cc(C(=O)Oc2cccc(C(=S)N3CCOCC3)c2)cc1[N+](=O)[O-] | inactive: 102% |
| Cc1sc2nc(CN3CCOCC3)[nH]c(=S)c2c1C | inconclusive: 92% |
| COCCN(C(=S)Nc1ccc(C(C)C)cc1)C(C)c1cccs1 (stereo not drawn) | inconclusive: 91% |
| CCCc1cc(NCc2ccccn2)n2c(nc3ccccc32)c1C#N | active: 75% |
| CCN1CCN(c2ncc(C(=O)Nc3c(F)cc(F)cc3Br)c3ccccc23)CC1 | inconclusive: 101% |
| Cc1cccc(-n2c(C)nc3cc(C(=O)NCc4ccc5c(c4)OCO5)ccc32)c1 | inconclusive: 87% |
| CC1=Nc2ccccc2N=C(NC(=O)c2ccccc2)C1c1ccccc1 (stereo not drawn) | inactive: 98% |
| CC(C)CNC(=O)c1nc(-c2ccccc2)n(-c2ccccc2)n1 | inconclusive: 105% |
| CCOC(=O)C1=C(CSc2nc(C)ccc2C#N)OC(N)=C(C#N)C1c1cccc(OC)c1OC (stereo not drawn) | inconclusive: 102% |
| c1ccc(OCc2nc3ccccc3[nH]2)cc1 | inconclusive: 106% |
| CN1CCN(Cc2nc3ccccc3c(=O)n2Cc2nc(-c3ccccc3F)cs2)CC1 | inactive: 101% |
| O=C1Nc2ccc(NS(=O)(=O)c3cccs3)c3cccc1c23 | inconclusive: 96% |
| CCOc1ccc(OCCOCCNCCOC)cc1 | inactive: 107% |

| Structure (SMILES) | GTP binding activity (% of control) |
| --- | --- |
| Cc1ccc(NC(=S)NNC(=O)c2c(Cl)c(C)nn2C)cc1 | inactive: 100% |
| Cc1ccccc1/C=C1\SC(=S)N(/N=C/c2cc([N+](=O)[O-])ccc2O)C1=O | inconclusive: 90% |
| Nc1nc(-c2ccc(Cl)cc2)nn1C(=O)c1cccnc1 | inconclusive: 107% |
| O=Cc1c(NCc2ccco2)nc2ccccn2c1=O | inconclusive: 93% |
| COc1ccc(-c2csc(NC(=S)NC(=O)c3cccs3)n2)cc1OC | inconclusive: 85% |
| COc1ccc(NC(=O)c2ccco2)cc1N | inconclusive: 100% |
| COc1cc2c(cc1OC)-c1cc(NCc3ccccn3)nc(=O)n1CC2 | inactive: 83% |
| Cc1cc2nc(-c3ccc(SCC(=O)Nc4nccs4)nc3)[nH]c2cc1C | inconclusive: 99% |
| CCc1ccccc1NC(=O)CN(c1ccc(OC)cc1OC)S(=O)(=O)c1ccccc1[N+](=O)[O-] | inactive: 100% |
| Cc1ccc(S(=O)(=O)CCSc2nc(C)cc(C(F)(F)F)c2C#N)cc1 | inconclusive: 115% |
| COc1ccccc1NC(=O)CN1CCN(C2c3ccccc3-c3ccccc32)CC1 | inconclusive: 96% |
| CCc1ccc(NC(=O)C(=O)NCc2ccccn2)cc1 | inactive: 97% |
| N#C/C(=C\c1ccco1)c1nc2ccccc2s1 | inactive: 100% |
| CN(Cc1cccnc1)C(=O)CC1C(=O)NCCN1Cc1ccc(-c2ccccc2)cc1 (stereo not drawn) | inconclusive: 93% |
| O=C(CSc1nnc(NC(=O)c2ccccc2Cl)s1)Nc1ccc2c(c1)oc1ccccc12 | inconclusive: 86% |
| CC(C)CNC(=O)CN(c1cccc(Cl)c1)S(C)(=O)=O | inactive: 97% |
| Cc1cc(C)cc(-c2nnc(SCC(=O)c3ccc4c(c3)OCCO4)o2)c1 | inconclusive: 88% |
| Cc1ccccc1-c1nnc(NC(=O)c2ccc(N3C(=O)CCC3=O)cc2)s1 | active: 130% [activator] |
| CC1C/C(=N/NC(=O)c2cccc(F)c2)c2ccc(O)cc2C1 (stereo not drawn) | inactive: 102% |
| COc1ccc(NC(=O)CSc2ccc3c4c(cccc24)C(=O)c2ccccc2-3)cc1 | inconclusive: 110% |

| Structure (SMILES) | GTP binding activity (% of control) |
| --- | --- |
| CCC(C)n1c(/C=C/c2ccccc2)nc2ccccc21 (stereo not drawn) | inconclusive: 105% |
| O=C(O)c1ccccc1S(=O)(=O)Cc1ccccc1 | inconclusive: 102% |
| CC(C)c1ccc(NC(=S)NCc2ccc3c(c2)OCO3)cc1 | inconclusive: 96% |
| O=C(CSc1nc2ccccc2c(=O)n1-c1ccccc1)NC(=O)CN1CCCC1=O | inconclusive: 100% |
| Cc1ccc(NC(=O)C2CC(=O)N(c3ccc4c5c(cccc35)CC4)C2)cc1 (stereo not drawn) | inconclusive: 93% |
| Cn1nc(C(F)(F)F)c(C(=O)Nc2ccc(F)cc2F)c1Sc1ccc(C(F)(F)F)cc1 | inactive: 108% |
| CCn1c(SCC(=O)Nc2nc3ccccc3s2)nnc1-c1ccc(Br)cc1 | inconclusive: 107% |
| S=C(NCc1ccc(Cl)cc1)NN1CCOCC1 | inactive: 102% |
| CCCOc1ccc(N2CC(C(=O)Nc3ccccc3C(=O)NCc3ccco3)CC2=O)cc1 (stereo not drawn) | inconclusive: 92% |
| O=S(=O)(c1cccc(-c2nc3n(n2)Cc2ccccc2-3)c1)N1CCCCC1 | inconclusive: 83% |
| CCn1c(SCC(=O)Nc2ccccc2N2CCCCC2)nc2c1c(=O)n(C)c(=O)n2C | inconclusive: 92% |
| Cc1cccc(N2C(=O)c3cccnc3C2=O)c1 | inconclusive: 110% |
| COc1cccc(C(=O)CSc2nnc(CNc3nc(-c4ccccc4)cs3)n2C)c1 | inconclusive: 95% |
| Nc1nonc1NC(=O)CSc1ncccc1C(=O)O | inconclusive: 105% |
| Cc1ccc(-c2nnc(N3CC(C)OC(C)C3)c3ccccc23)cc1 (stereo not drawn) | inactive: 97% |
| Cn1c(=O)n(Cc2ccccc2F)c(=O)c2c1nc1n2CCN1Cc1ccco1 | inconclusive: 80% |
| COc1ccc(NC(=O)/C(C#N)=C\c2ccc(OCc3ccc(C(=O)O)cc3)c(OC)c2)cc1 | inconclusive: 92% |
| Cc1cccc(C(=O)NNC(=O)c2ccccc2)c1 | inconclusive: 99% |
